# Experimental data as given in the supplement of paper PMC11417369.
# ± gives the standard deviation of the averaged measurements. The list shows a part of the results.
# System: PfAP2-EXP AP2 domain (GST-tagged)
# Test: gcPBM binding intensity (ln(normalized median fluorescence intensity)); higher = stronger DNA binding
# Summary of the method: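 In this array assay, P. falciparum DNA-binding domains with a GST tag, expressed in E. coli, were applied for 1 h to primer-extended double-stranded 36-bp intergenic genomic probes and negative controls on an Agilent 4 × 180k array. Bound protein was visualised with Alexa488 anti-GST antibody at 488 nm. Binding intensity is the highest Masliner-normalised natural-log median intensity across replicate spots of either probe orientation.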
row,Sequence,gcPBM binding intensity (ln)
1,AATTAAAATACAAATGTATGCATGTCTCATATAGAA [TGCATGCA_site822],8.41 ± 0.36
2,TACATAATTTAAAATTTTATAAGTTGTAATTCGTTT [XGTACX_negctrl_site308],8.21 ± 0.49
3,TATTTATAAAAAGATTGTACATTTTTTATTATTGTA [XGTACX_site6016],8.19 ± 0.36
4,ATAAAACAACAAAGAAAATGAAAAAGTAAAAACATA [CACACA_negctrl_site596],8.89 ± 0.45
5,AGTGCATACATGAATTGTACTTTAAAATAAATTCTA [XGTACX_site8156],8.53
6,TATACAAAATATTTTACACACACATATATATACATA [CACACA_site2616],8.81 ± 0.71
7,CATTATTTATTTTAATGTACTTATTTTTAAATTGGT [XGTACX_site8038],8.62 ± 0.45
8,AAAAAAAAAAAAAAAACACACATATATCTATAATAT [CACACA_site6665],8.46 ± 0.26
9,TCCTATAATAACGTCACACATTAAATTTAATAAATT [CACACA_site4506],8.57 ± 0.37
10,TTATTTACAACTTCAAATTATGTGTAATACTACTAT [CACACA_negctrl_site741],8.47 ± 0.4
11,AAATATTATGTACGCACACACATTTTTAATATATAA [CACACA_site3851],8.71 ± 0.23
12,TAAAAAAAAACTCATGCACACAATATTATGAAAAAG [CACACA_site665],8.77 ± 0.44
13,AGCACATTATTCAAAAGTACAAATAGGTATTGTATA [XGTACX_site6107],8.34 ± 0.28
14,TTTTTTTCTTTTTACATACACACAAAAAAATAAAAT [CACACA_site580],8.47 ± 0.39
15,TTGTTAATATGATAAAAGAGGAATATTCTCTTCCTA [GTGCAC_negctrl_site659],8.02 ± 0.38
16,AATATAAAAAAAAAAAAAAAAAAAAAAAAAAAGACA [CACACA_negctrl_site983],8.19 ± 0.45
17,CAATTATTGTAATGCATGCACTGAATATAAAAAGAA,10.3 ± 0.23
18,TTTATATGTATTAAGTGTACACATATAATGTATTTT [XGTACX_site16],8.71 ± 0.014
19,AAATTAATGTATATGTGAAGCAAGGGATGCGGCAGA [CACACA_negctrl_site406],8.86 ± 0.18
20,ATATATATATATATATAATATATAATATATATATAT [CACACA_negctrl_site96],10.02 ± 0.071
21,TCCAATTGTTCTAGTGTGCACATAAATAAATCTCAT,9 ± 0.31
22,TTCATATTCGATAAAGTGCATTAATTTTATTTATCA,8.525 ± 0.035

row,Sequence,gcPBM binding intensity (ln)
1,AATACTTTTTTCTGTACACACTTGATTTACTATAAT [CACACA_site5544],8.95 ± 0.38
2,AAGAGTTAAAAAAATACACACATATAGATTTTTTTA [CACACA_site7018],8.38 ± 0.35
3,ATAAATAAAAAAGAAAGAAAGAAAGAAACAAACAAA [CACACA_negctrl_site1198],8.56 ± 0.63
4,TATTAATGCAAATGTTATATGTGCATACATAAATGT [CACACA_negctrl_site790],8.34 ± 0.24
5,TATTACATACATATCTGTACATATATTAATGCACAA [XGTACX_site3315],8.62 ± 0.25
6,AAAAATATTAAAAAAGGTACACAGCATATCTCTTTT [XGTACX_site65],8.33 ± 0.58
7,AAAAAAAACAGACACACACACATTCAATATAAAACA [CACACA_site41],8.62 ± 0.54
8,ATATCTTATATTATCACACACACACCCACAAAACAG [CACACA_site1464],9.06 ± 0.43
9,ATGATATGGATAAATACACACAATATAATAATGGGT [CACACA_site4905],8.74 ± 0.34
10,ATATGTATAAATATAAATATATATATATATATATAT [CACACA_negctrl_site705],10.1 ± 0.29
11,ATTTTATATATGTGTTGTACGGTGAACATTTTGATA [XGTACX_site6538],8.71 ± 0.43
12,ACGTTAATATCTACAAGTACCCACATTAACAGGAAA [XGTACX_site2616],8.71 ± 0.33
13,TATATAAACATCGGTAGTACACACATTCATGTATTT [XGTACX_site6443],8.7 ± 0.46
14,GGATCATTTTTAAAGGAACACACAAAAAAAATTATA [CACACA_site8381],8.64 ± 0.49
15,TTTTTTTTGAAGAATACATGCATATTTTCTATATTC [TGCATGCA_site43],8.53 ± 0.33
16,ATATAAAATATGTATGAGGAATAAAATTAAAAAAAA [XGTACX_negctrl_site173],8.47 ± 0.47
17,TATTAAATATATATTACATGCAAAAAAAAAAAACAA [TGCATGCA_site705],8.72 ± 0.16
18,ATAAAAAAAGATGAACGTACATATATTTTAAAAATC [XGTACX_site5950],8.7 ± 0.45
19,ACAATATGCAAAAAGTGTACACATTCATTTATATAA [XGTACX_site1061],8.66 ± 0.28
20,AATATACAAATAAAGGTGCGAGATATTTTTACTTTT,8.59 ± 0.33
21,GTAAATATTTGTTGGGTGCTATCAATTATTTCAAAG,8.61 ± 0.33
22,TGCGGAAATAAGTGCACACATAGATATATGTATTTT [CACACA_site3689],9.1 ± 0.45
